{
  "source": "PubChem BioAssay AID2202238",
  "about": "(Ras Initiative Chemistry Research Team, Frederick National …, 2025)",
  "note": "Fewer than 10 of roughly 2,200 compounds were called active. The list shows a part of the results. Entries without a call are filed as inconclusive in the source.",
  "data": [
    {"molecular_target": "GTPase KRas (Homo sapiens) (UniProt P01116)", "sequence (P01116 whole entry, looked up, the tested form may be a part)": "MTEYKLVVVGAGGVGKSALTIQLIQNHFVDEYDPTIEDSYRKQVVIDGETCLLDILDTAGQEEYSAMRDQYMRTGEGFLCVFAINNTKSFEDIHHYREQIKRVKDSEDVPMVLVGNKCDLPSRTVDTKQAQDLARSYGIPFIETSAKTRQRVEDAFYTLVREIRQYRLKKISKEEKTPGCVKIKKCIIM", "test": "Fragment capture on engineered cysteines, share of protein labelled (AID 2202238)", "set-up": "protein at 5 µM with 500 µM competing thiol for 1.5 h", "conditions": "KRAS G12D cysteine mutants, disulfide tethering, MALDI-TOF labeling; stronger effect = higher value; H27C mutant labeling; fragment at 500 µM", "units": {"percent labeling": "%"}, "values": [
      {"smiles": "Cc1[nH]cnc1C(=O)NCCS", "percent labeling": 6.6},
      {"smiles": "CC1(C)CCc2onc(C(=O)NCCS)c2C1", "percent labeling": 28},
      {"smiles": "O=C(NCCS)C1CCCN1c1ncnc2ccccc12", "note": "(stereo unspecified)", "percent labeling": 35.9},
      {"smiles": "O=C(CCS)NCc1cccc(OCc2ccccc2)c1", "percent labeling": 30},
      {"smiles": "Cn1cnc(-c2ccc(C(=O)NCCS)cc2)n1", "percent labeling": 44.1},
      {"smiles": "O=C(NCCS)c1ccc(-c2csnn2)cc1", "percent labeling": 18.9},
      {"smiles": "Cc1nn(C)c(NC(=O)CCS)c1-c1ccccc1", "percent labeling": 41.5},
      {"smiles": "Cc1c(C(=O)NCCS)ccn1Cc1ccccc1", "percent labeling": 28.7},
      {"smiles": "Cc1nn(C)cc1C1CCCN1C(=O)CCS", "note": "(stereo unspecified)", "percent labeling": 24.4},
      {"smiles": "COc1cccc(Br)c1C(=O)NCCS", "percent labeling": 37.3},
      {"smiles": "Cc1cn(C(C)(C)C(=O)NCCS)nc1C(F)(F)F", "percent labeling": 30},
      {"smiles": "COc1ccc(Br)c2c1C(NC(=O)CCS)CC2", "note": "(stereo unspecified)", "percent labeling": 43},
      {"smiles": "Cn1ncc(C(F)(F)F)c1CNC(=O)CCS", "percent labeling": 35.5},
      {"smiles": "Cc1nc2cc[nH]n2c(=O)c1CC(=O)NCCS", "percent labeling": 27.2},
      {"smiles": "Cc1cc(C(=O)NCCS)c2nccc(C)c2c1", "percent labeling": 28.4},
      {"smiles": "O=C(NCCS)c1cc2ccc(F)cc2s1", "percent labeling": 26.2},
      {"smiles": "Cc1ccc(C)n1-c1sccc1C(=O)NCCS", "percent labeling": 7.7},
      {"smiles": "CCc1nn(CC(=O)NCCS)c(=O)c2cc3sccc3n12", "percent labeling": 16.3},
      {"smiles": "CN(Cc1cc(F)ccc1Oc1ccc(F)cc1Cl)C(=O)CCS", "percent labeling": 29.5},
      {"smiles": "Cc1nc2nc(C(F)(F)F)nn2c(C)c1CCC(=O)NCCS", "percent labeling": 29.2},
      {"smiles": "O=C(NCCS)C1CCC(N2CCOCC2)CC1", "note": "(stereo unspecified)", "percent labeling": 41},
      {"smiles": "CC(=O)Nc1c(Cl)ccc(C(=O)NCCS)c1Cl", "percent labeling": 40},
      {"smiles": "O=C(CCS)NCc1ccc(-c2cccnc2)c(F)c1", "percent labeling": 52.6},
      {"smiles": "O=C(Nc1cccc2c1CCCN2C(=O)CCS)NC1CCCCC1", "percent labeling": 19.9},
      {"smiles": "O=C(CCS)Nc1ccc(Cl)cc1-c1nn[nH]n1", "percent labeling": 32.3},
      {"smiles": "O=C(CCS)Nc1ccc(-c2n[nH]c3c2CCCC3)cc1", "percent labeling": 36.1},
      {"smiles": "O=C(CCS)Nc1cccnc1OCC(F)(F)F", "percent labeling": 33.6},
      {"smiles": "Cn1cc(N2CC(C(=O)NCCS)CC2=O)cn1", "note": "(stereo unspecified)", "percent labeling": 27.4},
      {"smiles": "CCCC(CC1CCCCC1)C(=O)NCCS", "note": "(stereo unspecified)", "percent labeling": 20.5},
      {"smiles": "Cn1c(C2CC2)nn(CC(=O)NCCS)c1=O", "percent labeling": 22.2},
      {"smiles": "CN(C)C1(C(=O)NCCS)CCOc2ccccc21", "note": "(stereo unspecified)", "percent labeling": 34.3},
      {"smiles": "Cc1ncc(CNC(=O)CCS)n1-c1ccccc1", "percent labeling": 40.1},
      {"smiles": "O=C(CC1c2ccccc2Oc2ccccc21)NCCS", "percent labeling": 23.1},
      {"smiles": "O=C(CCS)N(Cc1ccco1)Cc1ccco1", "percent labeling": 18.4},
      {"smiles": "O=C(CCS)N1CCC(c2nc(-c3ccncc3)cs2)CC1", "percent labeling": 45},
      {"smiles": "COCCc1noc(CC2CCN(C(=O)CCS)CC2)n1", "percent labeling": 41},
      {"smiles": "Cc1csc(CC2CCCN2C(=O)CCS)n1", "note": "(stereo unspecified)", "percent labeling": 41.7},
      {"smiles": "O=C(CCS)NCCC1(O)C(=O)Nc2ccccc21", "note": "(stereo unspecified)", "percent labeling": 44.1},
      {"smiles": "O=C(CCS)N1CCC(COc2ccc(C(F)(F)F)cn2)CC1", "percent labeling": 25},
      {"smiles": "O=C(CCS)NCC(=O)N1CCOc2ccccc21", "percent labeling": 44.1},
      {"smiles": "O=C(CCS)NC1CCN(c2ccc(Cl)c(Cl)c2)C1=O", "note": "(stereo unspecified)", "percent labeling": 37.6},
      {"smiles": "O=C(CCS)Nc1nc2ccc3scnc3c2s1", "percent labeling": 43.8},
      {"smiles": "CC1Oc2c(cccc2C(=O)NCCS)NC1=O", "note": "(stereo unspecified)", "percent labeling": 50.1},
      {"smiles": "O=C(NCCS)C1COc2ccc(F)cc2C1", "note": "(stereo unspecified)", "percent labeling": 23.1},
      {"smiles": "O=C(NCCS)c1nnn(-c2cccc(Br)c2)c1C(F)(F)F", "percent labeling": 7.9},
      {"smiles": "COc1cccc(-c2nc(C(=O)NCCS)c(C)[nH]2)c1", "percent labeling": 37.1},
      {"smiles": "O=C(Cc1cc2[nH]cnc2cc1Br)NCCS", "percent labeling": 53},
      {"smiles": "O=C(NCCS)c1coc(C#Cc2ccccc2)c1", "percent labeling": 12.8},
      {"smiles": "Cc1c(C(=O)NCCS)nnn1-c1ccc2c(c1)OCCO2", "percent labeling": 25.9},
      {"smiles": "Cc1nc(C(=O)NCCS)nn1-c1ccc(Cl)cc1", "percent labeling": 33.4},
      {"smiles": "Cc1ccc(N2CCCC2)cc1NC(=O)CCS", "percent labeling": 21.3},
      {"smiles": "Cc1cc(C)nc(-n2[nH]c(C(=O)NCCS)c(CCO)c2=O)n1", "percent labeling": 8.7},
      {"smiles": "Cn1c(=O)n(C)c2cc(C(=O)NCCS)c(Br)cc21", "percent labeling": 39.9},
      {"smiles": "CN(C)C(C(=O)NCCS)c1cc(Br)cs1", "note": "(stereo unspecified)", "percent labeling": 40.5},
      {"smiles": "Cc1nn(C2CCS(=O)(=O)C2)c(C)c1NC(=O)CCS", "note": "(stereo unspecified)", "percent labeling": 44.5},
      {"smiles": "O=C(NCCS)c1cccc(Oc2ccc(Cl)cc2)c1", "percent labeling": 24.3},
      {"smiles": "CC(C)C1N(C(=O)CCS)CC12CCS(=O)(=O)CC2", "note": "(stereo unspecified)", "percent labeling": 44.7},
      {"smiles": "Cc1c(C(=O)NCCS)sc2ncn(C)c(=O)c12", "percent labeling": 56.9},
      {"smiles": "O=C(NCCS)c1c(C(F)(F)F)nc2ccccn12", "percent labeling": 40.8},
      {"smiles": "O=C(CCS)Nc1ccc(-c2nnc3n2CCC3)cc1", "percent labeling": 44.2},
      {"smiles": "CCC(C)c1ccccc1N1CC(C(=O)NCCS)CC1=O", "note": "(stereo unspecified)", "percent labeling": 46.2},
      {"smiles": "Cc1ccc(C)c(C(C(=O)NCCS)C(C)C)c1", "note": "(stereo unspecified)", "percent labeling": 21.1},
      {"smiles": "CCN(Cc1c(CO)cnc(C)c1O)C(=O)CCS", "percent labeling": 37.5},
      {"smiles": "O=C(CN1C(=O)NC2(CCCc3ccccc32)C1=O)NCCS", "note": "(stereo unspecified)", "percent labeling": 28.5},
      {"smiles": "CN(Cc1ncc(Cl)n1C)C(=O)CCS", "percent labeling": 34.7},
      {"smiles": "O=C(CCS)N1CCc2nc(C3CCCCC3)[nH]c2C1", "percent labeling": 37.3},
      {"smiles": "O=C(CCS)N1CCC(c2csc(-c3ccc(Cl)cc3)n2)CC1", "percent labeling": 28.8},
      {"smiles": "O=C(CCC(=O)N1CCc2sccc2C1)NCCS", "percent labeling": 22.9},
      {"smiles": "O=C(NCCS)C1CCN(CC(F)(F)F)C1", "note": "(stereo unspecified)", "percent labeling": 27.1},
      {"smiles": "N#Cc1ccccc1Oc1ccc(C(=O)NCCS)cc1Cl", "percent labeling": 37.8},
      {"smiles": "O=C(CCS)Nc1nn(Cc2ccc(F)cc2)cc1Cl", "percent labeling": 36.5}
    ]}
  ]
}
